# Assay results reported in PMC4336329 (PLoS ONE, 2015).
# Screen size: about 310,000 compounds; about 14,000 (4.5%) showed an effect of 50% or more. The effect is printed as a negative number. This is one part of the list.
# Biological target: human ether-à-go-go-related gene (hERG) potassium channel (human, UniProt Q12809)
# Test: primary screen, population patch clamp on CHO cells stably expressing hERG
# 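Further: peak tail current of the secondary pulse compared with the same well before compound.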
# Chain of human ether-à-go-go-related gene (hERG) potassium channel (Q12809 whole entry, looked up): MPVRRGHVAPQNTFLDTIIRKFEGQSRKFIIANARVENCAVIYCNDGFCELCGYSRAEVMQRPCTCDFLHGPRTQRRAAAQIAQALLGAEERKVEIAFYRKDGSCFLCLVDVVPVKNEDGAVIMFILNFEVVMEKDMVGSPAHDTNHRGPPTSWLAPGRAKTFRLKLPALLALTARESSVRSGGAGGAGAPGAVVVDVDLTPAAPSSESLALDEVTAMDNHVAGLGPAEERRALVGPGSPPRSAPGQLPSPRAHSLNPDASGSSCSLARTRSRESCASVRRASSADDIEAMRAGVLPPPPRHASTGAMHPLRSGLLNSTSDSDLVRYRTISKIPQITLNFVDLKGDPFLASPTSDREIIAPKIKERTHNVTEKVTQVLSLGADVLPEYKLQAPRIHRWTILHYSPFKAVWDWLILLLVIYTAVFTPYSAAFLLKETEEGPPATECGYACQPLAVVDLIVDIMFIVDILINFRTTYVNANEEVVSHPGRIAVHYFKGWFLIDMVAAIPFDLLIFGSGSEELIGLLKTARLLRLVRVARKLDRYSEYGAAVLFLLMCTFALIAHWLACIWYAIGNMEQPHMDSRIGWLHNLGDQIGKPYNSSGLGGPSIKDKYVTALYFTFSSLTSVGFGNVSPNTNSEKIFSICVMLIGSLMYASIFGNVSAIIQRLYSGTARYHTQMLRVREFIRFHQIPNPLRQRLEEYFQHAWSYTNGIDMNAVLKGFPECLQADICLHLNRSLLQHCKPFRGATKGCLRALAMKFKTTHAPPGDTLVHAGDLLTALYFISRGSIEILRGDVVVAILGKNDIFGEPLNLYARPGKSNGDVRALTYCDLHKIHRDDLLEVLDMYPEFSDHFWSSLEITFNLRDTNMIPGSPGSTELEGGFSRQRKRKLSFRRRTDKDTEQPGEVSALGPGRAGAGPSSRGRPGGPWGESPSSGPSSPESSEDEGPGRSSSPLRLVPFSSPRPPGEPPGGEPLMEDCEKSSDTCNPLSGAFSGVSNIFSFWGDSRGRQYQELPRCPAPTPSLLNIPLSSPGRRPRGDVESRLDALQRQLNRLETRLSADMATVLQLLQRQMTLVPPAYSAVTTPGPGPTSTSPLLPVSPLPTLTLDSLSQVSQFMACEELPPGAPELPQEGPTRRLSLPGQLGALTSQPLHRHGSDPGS
row,Compound,"hERG current change (%, negative = inhibition) at 10uM [%]"
1,Cc1nn(CC(=O)O)c2ccccc12,17.7
2,CCC(C)NS(=O)(=O)c1ccc(NC(=O)C2CCN(C(=O)c3ccco3)CC2)cc1 (stereo not shown),-3.86
3,Cc1ccc(OCCC(=O)NCCc2ccc(S(N)(=O)=O)cc2)cc1,-10.1
4,CC(=NCc1ccc(F)cc1)c1c(O)n(C)c(=O)n(C)c1=O,-27.5
5,COc1ccc(CNC(=S)Nc2ccccc2)cc1,7.34
6,COc1ccc(-c2nnc(SCc3ccc(C(=O)O)cc3)n2N)cc1,6.5
7,O=C(COC(=O)c1ccc(Cl)nc1)Nc1ccc2c(c1)OCO2,-20.7
8,Cl.O=C(CN1CCN(C2CCCCC2)CC1)Nc1ccc(Br)cc1,-70
9,CC1=C(C(=O)Nc2ccc(C)cc2C)C(c2cccs2)NC(=S)N1 (stereo not shown),-5.3
10,CCN(CC(=O)Nc1ccc(OC)cc1)C(=O)c1ccc(=O)n(Cc2ccccc2)n1,-31
11,CCNC(=O)/C(=C\C=C\c1ccccc1)NC(=O)c1ccc(Br)o1,-18.2
12,O=C1[C@@H]2[C@H]3CC[C@H](C3)[C@@H]2C(=O)N1O,27.8
13,O=C(O)c1ccc(N/N=C/c2ccc3ncccc3c2)cc1,11.3
14,Fc1ccc(Nc2nc(-c3ccncc3)cs2)cc1,26.1
15,COCCNC(=S)N1CCN(c2nc(-c3ccc(Cl)cc3)cs2)CC1,2.09
16,CCC(C)NCCCOc1cc(Cl)ccc1Cl.O=C(O)C(=O)O (stereo not shown),-42.3
17,COc1ccccc1C(=O)Nc1ccc(Nc2ccccc2)cc1,18.4
18,Cc1cc(N2CCOCC2)ccc1/C=C1\C(=O)NC(=O)N(c2ccccc2)C1=O,10.8
19,[N-]=[N+]=NCc1cn2cccnc2n1,26
20,Cc1ccc(NC(=O)NC(=O)CN2C(=O)NC3(CCc4ccccc43)C2=O)c(C)c1 (stereo not shown),-26.1
21,COc1cc2cc(CN(Cc3cccs3)C(=S)Nc3ccccc3)c(=O)[nH]c2cc1OC,-6.81
22,CN(C)c1ccc(-c2cc([C@H]3[C@@H]4C=CCC[C@@]4(C)C(=O)N3Cc3ccccc3)ccc2F)cc1,11.6

row,Compound,"hERG current change (%, negative = inhibition) at 10uM [%]"
1,COc1cc2c(cc1OC)CN(Cc1cc(OC)c3c(c1)OCO3)CC2,6.31
2,COc1ccccc1NC(=O)CC1S/C(=N/N=C(\C)C2CCCCC2)NC1=O (stereo not shown),2.38
3,COC(=O)CCCC(=O)N(C)CC1CCCN(CCc2ccccc2C)C1 (stereo not shown),-53.6
4,CCOC(=O)C1=C(CC)Nc2ccccc2N/C1=N\S(=O)(=O)c1ccccc1F,-3.06
5,C=CCNC(=O)c1c(N)n(CCN2CCOCC2)c2nc3ccccc3nc12,-20
6,CC(C)(C)c1ccc(C(=O)N2CCN(c3ccc(N4CCOCC4)nn3)CC2)cc1,-49.3
7,CC1CCN(C(=O)C2CCN(S(=O)(=O)N3CCC4(CC3)OCCO4)CC2)CC1,27.4
8,CCOc1ccc(-c2ccc(SCC(=O)Nc3nnc(CC)s3)nn2)cc1,46.4
9,Cc1ccc(S(=O)(=O)Oc2ccc(/C=C3\N=C(c4cccc(C)c4)OC3=O)cc2)cc1,1.5
10,O=C(NCc1ccccc1)c1ccc2ccccc2n1,0.0129
11,Cc1ccc(NC(=O)CSc2nnc(Cc3csc(C)n3)o2)cc1,-9.27
12,Cc1cc(C)cc(-n2c(C)cc(/C=N/NC(=O)CSc3ncccn3)c2C)c1,1.67
13,O=C(CSc1ccncc1)Nc1ccc(S(=O)(=O)Nc2nccs2)cc1,10.2
14,COc1ccc(F)cc1S(=O)(=O)N1CCC(C(N)=O)CC1,3.21
15,COCCCNC(=S)N1CCN(S(=O)(=O)c2ccc(OC)cc2)CC1,2.49
16,S=c1[nH]nc(-c2cc(-c3ccccc3)n[nH]2)n1/N=C/c1ccc(Cl)cc1,17.7
17,COc1ccccc1N1CCN(C(=O)c2cc3cc(Br)ccc3oc2=O)CC1,-16.9
18,O=C(/C=C/c1ccccc1)NCC(=O)N/N=C/c1cccs1,-3.21
19,O=C(O)CCCC(=O)Nc1cccc(-c2nc3ccccc3[nH]2)c1,34.1
20,O=C(CC(c1ccccc1)c1ccccc1)NCC1CCCO1 (stereo not shown),8.09
21,Cc1nc(Nc2nc3ccccc3o2)nc(C)c1C(=O)Nc1ccc(F)cc1,-14.6
22,Cc1ccc(CCNC(=O)C2CC(c3ccccc3C(F)(F)F)=NO2)cc1 (stereo not shown),-14.6

row,Compound,"hERG current change (%, negative = inhibition) at 10uM [%]"
1,O=C(c1cc(-c2ccccc2)nn1-c1ccccc1)N1CCN(S(=O)(=O)c2cccc(F)c2)CC1,17.7
2,CC1NC2(C(=O)N(Cc3ccccc3)c3ccccc32)C2C(=O)N(c3ccccc3)C(=O)C12 (stereo not shown),12.6
3,COc1ccc(CNCC(O)COCc2cccs2)cc1 (stereo not shown),-60.8
4,COc1ccc(Oc2c(C)oc3cc(OC(=O)N(C)C)ccc3c2=O)cc1,8.54
5,CN(C)C(=O)c1cc(S(=O)(=O)N(C)C)c(Cl)cc1N1CCCC1,-3.8
6,O=C(NCc1ccccn1)C1Nc2ccc(C(F)(F)F)cc2C2C=CCC12 (stereo not shown),0.195
7,CCCCCOC(=O)C1=C(C)NC(=O)NC1c1ccc(N(C)C)cc1 (stereo not shown),12.5
8,Cc1ccccc1NC1=NC2(CCCC2)N=C(N)N1,-5.43
9,Cc1c(C)c2cc3c4c(oc3c(C)c2oc1=O)CCCC4,1.96
10,COc1cc(NS(=O)(=O)c2ccc(NC(C)=O)cc2)cc(OC)c1,9.3
11,Cc1cccc(C(=O)N2CCCN(C(=O)c3cccc(C)c3)CC2)c1,-0.26
12,O=C(OCC(=O)N1CCCc2ccccc21)c1ccc(Cl)nc1,-3.94
13,C/C(=N\NC(=O)CCc1c(C)n[nH]c1C)c1ccc([N+](=O)[O-])cc1,-10.8
14,COc1ccc(S(=O)(=O)NCC(c2ccc3c(c2)OCO3)N2CCOCC2)cc1 (stereo not shown),-6.41
15,O=C(Nc1ccc(Cl)cc1)OCc1ccccn1,10.3
16,Cn1nnnc1Sc1ncnc2scc(-c3ccccc3C(F)(F)F)c12,-13.2
17,COC(=O)C/C(C)=N/Nc1ccc(S(=O)(=O)N2CCCC2)cc1[N+](=O)[O-],6.76
18,O=C(Nc1ccccc1)c1cccc(S(=O)(=O)N2CCCCC2)c1,0.607
19,CCOC(=O)N1CC=C2C(C#N)=C(N)C(C#N)(C#N)[C@H](c3ccccc3OCC)[C@H]2C1,-7.13
20,O=C(CCCl)N1CCCC2(CCCCC2)C1,-0.6
21,O=C1[C@@H]2Cc3c([nH]c4ccccc34)CN2C(=O)CN1CCCCCO,10.3
22,CCOC(=O)N1CCc2c(sc(NC(=O)CCS(=O)(=O)c3ccccc3)c2C(N)=O)C1,-10.8

row,Compound,"hERG current change (%, negative = inhibition) at 10uM [%]"
1,CC1CCC(NC(=O)CC(C)(C)Cc2nc3ccccc3c(=O)[nH]2)CC1 (stereo not shown),-7.76
2,CNC(=O)C1(CC(C)C)C=CCN1C(C)=O (stereo not shown),10.3
3,CCOc1ccc(NC(=O)CN2CCN(C(=O)c3ccco3)CC2)cc1S(=O)(=O)N1CCCC1,-21.2
4,CC1(C(=O)Nc2cccc(S(=O)(=O)N3CCOCC3)c2)Cc2ccccc2C(=O)O1 (stereo not shown),19.8
5,O=C(CSc1cccc[n+]1[O-])N1CCCc2ccccc21,10.8
6,CC(O)CNCc1cccc2ccccc12.Cl (stereo not shown),17.7
7,CCCNC(=O)C1CN(C(=O)c2nn(Cc3ccccc3)c(=O)c3ccccc23)c2ccccc2O1 (stereo not shown),0.692
8,Cc1ccc(C)c(N2N=C(C(=O)Nc3cccnc3)CCC2=O)c1,-4.97
9,CC(=O)Nc1ccc(N(C(=O)CNC(=O)c2ccco2)C(C(=O)NCc2ccco2)c2ccccc2F)cc1 (stereo not shown),28.9
10,COc1ccc(Cl)cc1NC(=O)CN1CCN(S(=O)(=O)N2CCOCC2)CC1,-55.9
11,CCOC(=O)c1cc(C)sc1/N=C/C1=C(O)CCCC1=O,-6.61
12,O=C(Nc1ccc(Cl)cc1)c1ccc2nsnc2c1,13.5
13,COc1cc(/C=C2/N=C(c3ccccc3)OC2=O)c(F)cc1OCc1ccccc1,10.1
14,CSc1ccccc1NC(=O)Nc1ccccc1Cl,5.26
15,Cn1c2ccccc2c(=O)n2c(=O)c3ccccc3cc12,-24.9
16,O=C(CCn1cccc1)NCc1ccc2c(c1)OCO2,-0.49
17,CCC1CO/C(=C(\C(=C(Cl)Cl)N2CCOCC2)[N+](=O)[O-])N1 (stereo not shown),1.07
18,Cc1ccc(C2=NN(CC(=O)NCc3ccco3)C(=O)CC2)cc1,-37.9
19,O=C(NC1CCCN(Cc2ccccc2F)C1)c1cccs1 (stereo not shown),-4.04
20,S=c1nc[nH]c2c1[nH]c1ccc(Cl)cc12,16.4
21,Cc1ccccc1-n1nc(C(=O)O)cc1-c1ccccc1,7.87
22,CC(=O)Nc1cccc(NC(=O)COc2nncc3ccccc23)c1,-0.799
